Experimental data from the supplement of paper PMC10126150.
Sequences with one replicate were seen in a single cluster, so their values are uncertain.

Test system: ATP
Experiment: switch fluorescence ratio, 500 uM ATP over buffer (Cy3 cluster intensity, sum of 5 cycles each) (fold (ratio)); higher = stronger signal-on switching upon ATP binding; sequences stand for … in TCGTCGGCAGCGTCAGATGTGTATAAGAGACAGTTTTTTTTTTTTTTTTTTTTTTTTT…TC
Details: aptamer strand: ATP DNA aptamer (quencher-CACCTGGGGGAGTATTGCGGAGGAAGG + anchor), 100 nM annealed; ATP concentration: 500 uM; one replicate
Outline: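 Clusters with intensities outside 100-1000 RFU were excluded. The remaining Cy3-labelled switching-strand clusters on a modified Illumina MiSeq flow-cell had been annealed to 100 nM quencher-labelled ATP aptamer and imaged in selection buffer, then after 15 min with 500 uM ATP at 22 °C, for five cycles separated by NaOH stripping and re-annealing. The fluorescence ratio, averaged per switch-domain sequence, is each cluster's summed target-cycle Cy3 intensity over its summed buffer-cycle Cy3 intensity.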
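Note: ATP exposure 15 min at 22 °C before imaging.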

| Sequence | switch fluorescence ratio |
| --- | --- |
| CCTCTCGTA | 1.78 |
| CGCGCCAGAG | 1.03 |
| CCGGGAGACA | 1.16 |
| ACCTCGAGAG | 1.03 |
| GGGGATGCA | 0.988 |
| AGGGGTAATG | 0.996 |
| CTACGTTAGC | 1.38 |
| GAATCTTGGG | 0.96 |
| AATAAGTGAG | 1.08 |
| GTGCGGGTCC | 0.985 |
| ATCGCTGG | 1.01 |
| GCAACAGGGA | 1.05 |
| GCTCATATAC | 3.04 |
| AAAAGTCTTG | 1.04 |
| AATCTTTAAC | 1.01 |
| AGGGCGGTAC | 1.21 |
| TCAAGGCCC | 1.02 |
| GGTATCTCAT | 1.03 |
| AGGGGACGGT | 0.999 |
| TCTATTCGTG | 0.973 |
| TGTGATAGCT | 0.965 |
| TGGGGCCAAT | 0.999 |

| Sequence | switch fluorescence ratio |
| --- | --- |
| CGGTACCCTT | 1.04 |
| GAGTAATGAC | 1.09 |
| CGCGGAATTG | 0.995 |
| GCCATATTAA | 0.967 |
| TTGGGGGCTG | 0.953 |
| GGTAAATGTT | 0.968 |
| ATATCCATTC | 1.01 |
| TGATGTAGTT | 0.991 |
| GCCGCGCC | 1.14 |
| GGCGTAGCGC | 1.19 |
| CTCCTTTTTG | 1 |
| GTGAGCGATG | 1.01 |
| TCCGCATTTT | 4.56 |
| AAAAGGGT | 1.02 |
| CCGTCCGACT | 1.2 |
| GCGAAACTAG | 0.939 |
| ATCCTGGAGG | 0.984 |
| GTGACGGGCC | 1.01 |
| TTAGGCCTGA | 0.972 |
| TTGAATACGC | 1.02 |
| CGTAAAGGAC | 1.06 |
| ATATCCGAGG | 1.05 |

| Sequence | switch fluorescence ratio |
| --- | --- |
| GGATTCGTCC | 1.04 |
| GTGTTGAGTC | 0.972 |
| ATAACCGAT | 1.06 |
| ATAAGCACAA | 1.2 |
| TAGGGATT | 1.01 |
| GATCTGATAG | 0.995 |
| TTCACGTTCC | 2.32 |
| GTTAGGAGAG | 0.933 |
| GAGATTAGGC | 1.01 |
| GCTCCGGAGC | 1.06 |
| ATTGGGTGAG | 1.03 |
| CACGCACGAA | 1.58 |
| AGCAGAGGTC | 0.958 |
| GGTCTAAGAA | 0.973 |
| CCGCCTAGTG | 1.57 |
| CATCGCCGTG | 0.993 |
| GCGGGCACAT | 0.982 |
| GGTACTCGC | 0.994 |
| GCTTGCATGT | 0.988 |
| CGGGGCCGCA | 1.08 |
| TTACGTTGGC | 1.05 |
| TGGCATTCAA | 0.987 |

| Sequence | switch fluorescence ratio |
| --- | --- |
| TGGTAGCGAG | 1.01 |
| AAATTTTGTA | 0.998 |
| TAGAAGTTTC | 0.98 |
| CCGCAGACCA | 5.01 |
| ACTATTGAGT | 1.02 |
| TGGTGTGAGA | 1.02 |
| TTTGGGGCC | 0.986 |
| TTTCTTCGGA | 1.07 |
| AATATGTTAT | 0.99 |
| TCGATACTGC | 1.09 |
| AGTGCCAT | 0.96 |
| CGAGGCCCAG | 1.03 |
| CTCGTAGCTT | 1.33 |
| GGGGGTGCTA | 0.952 |
| TCGATGTGG | 1.04 |
| GACATTTTCT | 0.954 |
| TAACGGTAAG | 1.02 |
| GCAGACGGTC | 1.07 |
| AAGAGGAACG | 1.11 |
